Measured values published in the supplement of paper PMC3334620.
In all, about 33,000 sequences were measured (“E-score (-0.5 to 0.5)”: median about -0.032, highest 2% from about 0.36 on). This is one part of the list.

target: T1, Sko1 (UniProt Q02100); assay: PBM E-score (8-mer binding enrichment) (E-score (-0.5 to 0.5)); higher = stronger / more preferred TF binding; most listed sequences are background and not binding sites; conditions: protein concentration: 200 nM; construct: GST-full length
T1 sequence: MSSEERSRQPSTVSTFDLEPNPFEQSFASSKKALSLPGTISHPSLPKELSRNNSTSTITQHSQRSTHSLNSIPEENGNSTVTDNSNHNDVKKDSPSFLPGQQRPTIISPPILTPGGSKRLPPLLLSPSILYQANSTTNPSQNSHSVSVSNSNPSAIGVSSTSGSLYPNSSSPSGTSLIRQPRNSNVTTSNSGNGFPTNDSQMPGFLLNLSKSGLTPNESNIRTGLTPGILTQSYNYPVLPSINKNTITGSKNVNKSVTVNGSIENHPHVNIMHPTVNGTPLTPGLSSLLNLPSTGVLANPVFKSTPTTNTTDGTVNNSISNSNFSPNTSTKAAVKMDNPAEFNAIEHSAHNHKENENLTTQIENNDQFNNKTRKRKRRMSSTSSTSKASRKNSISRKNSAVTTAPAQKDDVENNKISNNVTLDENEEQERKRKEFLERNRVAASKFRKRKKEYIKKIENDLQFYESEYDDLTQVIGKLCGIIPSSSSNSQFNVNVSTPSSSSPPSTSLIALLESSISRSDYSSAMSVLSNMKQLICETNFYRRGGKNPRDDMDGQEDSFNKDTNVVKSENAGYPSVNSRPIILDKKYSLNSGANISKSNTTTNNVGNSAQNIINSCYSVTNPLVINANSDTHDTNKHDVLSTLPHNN
Outline: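 Using PURExpress in vitro transcription/translation, GST-tagged yeast transcription factors were made in full-length or DNA-binding-domain form. These were applied at about 100-200 nM to double-stranded universal all-10-mer Agilent arrays, and bound protein was detected with fluorescent anti-GST. Scans were normalised with masliner before the Universal PBM Analysis Suite assigned E-scores to ungapped eight-base words pooled with their reverse complements.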

Going from CCGATATC to AATTGCCA, the “PBM E-score” value rises from -0.00623 to 0.0631.

Compared with CCATAGCG, ATTGTCCG is lower in “PBM E-score” value: 0.0329 for the first, -0.0584 for the second.

Going from AACACCTC to CGCATCGA, the “PBM E-score” value falls from 0.0383 to -0.00344.

Compared with TATCACCA, AGCCAGCT is lower in “PBM E-score” value: 0.0309 for the first, -0.097 for the second.

First: GGTACAAA
Second: CTCGATGA
The “PBM E-score” value of the first is higher: 0.0825 for the first, 0.0638 for the second.

First: TAAAGCAA
Second: CATTGCAA
The “PBM E-score” value of the first is higher: 0.024 for the first, -0.131 for the second.

Compared with CTCGCCCA, AGGACGAA is lower in “PBM E-score” value: -0.111 for the first, -0.133 for the second.

Compared with AATGCCGT, CGCAGTAG is lower in “PBM E-score” value: 0.167 for the first, 0.012 for the second.

Going from CATGAGCC to ATTGGGGA, the “PBM E-score” value rises from -0.189 to -0.136.

Going from AATCACTA to TGCAGCCA, the “PBM E-score” value falls from 0.0894 to -0.191.

First: AGCCTTCA
Second: CTAGTGAC
The “PBM E-score” value of the first is lower: 0.0137 for the first, 0.141 for the second.

Compared with AACCACTA, GCTTAACC is lower in “PBM E-score” value: -0.0789 for the first, -0.0972 for the second.

Going from GAGTAAGA to GGACGGGA, the “PBM E-score” value falls from 0.0882 to -0.222.

First: GTTCCTGA
Second: AATATGAT
The “PBM E-score” value of the first is lower: 0.0292 for the first, 0.254 for the second.

First: AGTGACGC
Second: CGCTTTTA
The “PBM E-score” value of the first is higher: 0.416 for the first, 0.169 for the second.

Going from ATCACGGC to AGTGCAGC, the “PBM E-score” value falls from -0.102 to -0.175.

First: ACGATCGA
Second: CTAGAGGC
The “PBM E-score” value of the first is higher: 0.0779 for the first, -0.204 for the second.

Compared with CCGTCTCG, GTGCCGGA is lower in “PBM E-score” value: -0.0203 for the first, -0.244 for the second.

Going from CTGTCGGA to AACATGGG, the “PBM E-score” value falls from -0.0296 to -0.0376.

Going from GGCATAAC to AGATGCTA, the “PBM E-score” value rises from 0.0858 to 0.115.

First: ACACGTGG
Second: ATGACAGG
The “PBM E-score” value of the first is higher: 0.356 for the first, -0.143 for the second.

Going from AAATGCAT to ACAAGTCA, the “PBM E-score” value falls from 0.0597 to -0.168.

Going from CCAATCGC to AGCAAGGC, the “PBM E-score” value falls from -0.229 to -0.269.

Compared with TCCAGCCA, ACCCTTGG is lower in “PBM E-score” value: -0.237 for the first, -0.285 for the second.

Compared with TACAGTGA, TGCAGGCA is lower in “PBM E-score” value: 0.158 for the first, 0.0629 for the second.

Going from AACTTGCT to TATTCCGA, the “PBM E-score” value rises from -0.19 to 0.0478.

First: ATTACGTC
Second: CGCATAAC
The “PBM E-score” value of the first is higher: 0.492 for the first, 0.245 for the second.

Going from TACTGCAA to ACCTGGAG, the “PBM E-score” value falls from 0.0647 to -0.148.

First: GCTCGACA
Second: CAGGCCTC
The “PBM E-score” value of the first is higher: -0.181 for the first, -0.423 for the second.

First: GACTTCCC
Second: CGAAACAC
The “PBM E-score” value of the first is lower: -0.161 for the first, 0.153 for the second.

First: AACAAGGC
Second: CACGATTC
The “PBM E-score” value of the first is lower: -0.201 for the first, 0.0829 for the second.

Compared with AGAAATGA, TACCAGAA is lower in “PBM E-score” value: 0.113 for the first, -0.0119 for the second.

First: ATGACCCC
Second: CGTTCGAC
The “PBM E-score” value of the first is lower: -0.25 for the first, -0.0502 for the second.

Going from ACCGACTC to GGGCTGAC, the “PBM E-score” value rises from -0.271 to -0.00802.

First: AAGTAGAG
Second: CTATTACC
The “PBM E-score” value of the first is higher: -0.0678 for the first, -0.137 for the second.

First: ACGGGTAC
Second: CCAGTGGC
The “PBM E-score” value of the first is higher: -0.0904 for the first, -0.185 for the second.

Going from TAAAATGA to AAGGTCGG, the “PBM E-score” value falls from 0.243 to -0.226.

Going from ACACATCT to CCCACTAA, the “PBM E-score” value falls from -0.00947 to -0.0314.

Compared with AATAAGTG, AGCTTCTA is lower in “PBM E-score” value: 0.0221 for the first, -0.227 for the second.

Going from CAGAGTCC to CCCAGCTC, the “PBM E-score” value falls from -0.11 to -0.414.

Compared with GAATCCTC, CGTGGCAC is higher in “PBM E-score” value: -0.194 for the first, 0.148 for the second.

Compared with CTTTAGGC, ACGTACAA is higher in “PBM E-score” value: -0.1 for the first, 0.414 for the second.

First: CCCTAGCC
Second: GCCCGGCA
The “PBM E-score” value of the first is higher: -0.205 for the first, -0.33 for the second.

Compared with ATGACGCA, CTCAACGA is lower in “PBM E-score” value: 0.492 for the first, -0.0282 for the second.

First: ATGGGAGG
Second: TACAGCGA
The “PBM E-score” value of the first is lower: -0.185 for the first, -0.12 for the second.

First: CGGGTGTA
Second: GCTTTCCC
The “PBM E-score” value of the first is lower: -0.257 for the first, -0.253 for the second.

Compared with CTTGTACC, AAGGTTAC is higher in “PBM E-score” value: -0.0456 for the first, 0.094 for the second.

Compared with AAATGGCT, ATTCAATG is higher in “PBM E-score” value: -0.0674 for the first, 0.133 for the second.

Compared with ATCGTCTC, ACTACTAC is higher in “PBM E-score” value: -0.0603 for the first, 0.0419 for the second.

Going from AGCTCGTA to TGCATGCA, the “PBM E-score” value falls from 0.172 to -0.0609.

First: CCAGCCAA
Second: AGCTCACT
The “PBM E-score” value of the first is higher: -0.0361 for the first, -0.16 for the second.

Compared with CGTTGCTA, AGTTCGTG is lower in “PBM E-score” value: 0.153 for the first, 0.0924 for the second.

First: AGCTATCG
Second: CTTAACGA
The “PBM E-score” value of the first is lower: 0.0005 for the first, 0.0673 for the second.

First: CGTGTTGA
Second: CGCGGCAA
The “PBM E-score” value of the first is higher: 0.229 for the first, -0.171 for the second.

Going from GTACTTGA to CCTCGTAG, the “PBM E-score” value falls from 0.126 to 0.102.

First: ATTTCATA
Second: ACTACATG
The “PBM E-score” value of the first is lower: 0.124 for the first, 0.151 for the second.

First: GTCAGGCA
Second: CGGATACG
The “PBM E-score” value of the first is lower: 0.0902 for the first, 0.242 for the second.

Compared with ATCTACGG, CAGTCGGC is lower in “PBM E-score” value: -0.0475 for the first, -0.295 for the second.

Compared with ACAAAGAG, CAGTGATG is higher in “PBM E-score” value: -0.231 for the first, 0.195 for the second.

First: AAAAAATC
Second: ACTTGGAC
The “PBM E-score” value of the first is higher: 0.072 for the first, 0.0279 for the second.

Compared with GGGGGGAC, CCGCTGAG is higher in “PBM E-score” value: -0.298 for the first, -0.29 for the second.

Compared with ACCTGCCG, ACCTTCTC is lower in “PBM E-score” value: -0.175 for the first, -0.22 for the second.

First: AGCGGCTA
Second: ATTGCGCC
The “PBM E-score” value of the first is higher: -0.0414 for the first, -0.0972 for the second.

Going from AGACATAG to TCAATGAA, the “PBM E-score” value rises from -0.0472 to 0.092.

First: AGAACACA
Second: AGGTTAGC
The “PBM E-score” value of the first is higher: 0.128 for the first, -0.163 for the second.

First: CTATGTGA
Second: CGAACATA
The “PBM E-score” value of the first is higher: 0.154 for the first, 0.113 for the second.

First: GGATCCCA
Second: GCACCTAC
The “PBM E-score” value of the first is higher: -0.0813 for the first, -0.102 for the second.

First: TAGACCAA
Second: CAGTCAAG
The “PBM E-score” value of the first is higher: -0.0515 for the first, -0.0856 for the second.

Going from AGGAGTAC to AATTTTAT, the “PBM E-score” value rises from -0.0519 to 0.23.

Going from ACCAATGA to CACCATTC, the “PBM E-score” value falls from 0.0754 to -0.0698.

Going from AGTCCGAA to ATAGTTGG, the “PBM E-score” value rises from -0.115 to -0.0293.

First: AATAAGAG
Second: CCCAAGGG
The “PBM E-score” value of the first is higher: -0.0433 for the first, -0.408 for the second.

Compared with ACCGGGAC, GTGACGAA is higher in “PBM E-score” value: -0.177 for the first, 0.446 for the second.

Compared with TGCGTAAA, TATGCTCA is lower in “PBM E-score” value: 0.404 for the first, 0.0932 for the second.

Going from ATGTCCAA to GCTGTGAA, the “PBM E-score” value falls from 0.0296 to -0.217.

Going from CCTTGCAA to CCCAACCA, the “PBM E-score” value rises from -0.328 to 0.0349.

First: ACAGGTTA
Second: ATTCAAAC
The “PBM E-score” value of the first is lower: 0.0312 for the first, 0.129 for the second.

Going from ACGGGAGA to AGTAGTCG, the “PBM E-score” value rises from -0.175 to -0.0397.

Compared with GTTCACCA, AATTCATC is lower in “PBM E-score” value: -0.0203 for the first, -0.0881 for the second.

Going from AGCCCCAG to AATGAGCA, the “PBM E-score” value rises from -0.339 to 0.152.

Going from GAAAACCC to GCGAAGAC, the “PBM E-score” value falls from -0.237 to -0.257.

First: CGTTCTTC
Second: GATAATAA
The “PBM E-score” value of the first is higher: 0.0489 for the first, 0.0251 for the second.

Going from CGGAAGTA to CGGGCATC, the “PBM E-score” value falls from -0.19 to -0.324.

Going from GATATTGC to CCCCACCG, the “PBM E-score” value falls from 0.022 to -0.273.

Compared with GCCGAAGC, AGGTGCCG is lower in “PBM E-score” value: -0.233 for the first, -0.247 for the second.

Going from CGCTAAAC to CAGTAAGC, the “PBM E-score” value falls from 0.103 to -0.0667.
